Laboratory results from the supplement of paper PMC4604168 (melanoma cell lines).
This is one part of the list. Many values rest on one well or one pass, so single values are uncertain.

Key:
Assay in all cases: cell count relative to DMSO control; melanoma cells; higher = more viable cells
Conditions in all cases: library dose: low library concentration; 72 h
[1] = test system: MZ2-MEL
[2] = test system: MeWo
[3] = test system: RPMI7951
[4] = test system: RVH-421
[5] = test system: SkMel28
[6] = test system: SkMel30
[7] = test system: SkMel5
[8] = test system: UACC257
[9] = test system: UACC62
[10] = test system: WM115
[11] = test system: WM1716
[12] = test system: WM1745
[13] = test system: WM3526
[14] = test system: WM3619
[15] = test system: WM451Lu
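Note: cell number obtained by counting DAPI-stained nuclei in high-throughput microscope images with image analysis software, screen run in 1,536-well plates.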

Compound | cell count [1] | cell count [2] | cell count [3] | cell count [4] | cell count [5] | cell count [6] | cell count [7] | cell count [8] | cell count [9] | cell count [10] | cell count [11] | cell count [12] | cell count [13] | cell count [14] | cell count [15]
Cc1cc(SCc2sc(-c3ccc(C(F)(F)F)c(F)c3)nc2C)ccc1OCC(=O)O + c1cc(-c2cnn3cc(-c4ccc(OCCN5CCCCC5)cc4)cnc23)ccn1 [Dorsomorphin] (first compound 2 µM, partner dose 0.4 µM) | 106% | 97.2% | 93.1% | 109% | 85.2% | 101% | 81.8% | 76% | 86.9% | 94.6% | 103% | 78.7% | 83.1% | 78.6% | 114%
Cn1nnc2c(C(N)=O)ncn2c1=O [temozolomide] + C/C(O)=C(\C#N)C(=O)Nc1cc(Br)ccc1Br [LFM-A13] (first compound 2 µM, partner dose 2 µM) | 93% | 104% | 93% | 110% | 79.8% | 80.7% | 107% | 104% | 82.3% | 97.5% | 93.2% | 108% | 84.8% | 134% | 96.9%
C[C@]1(c2nc3c(C(N)=O)cccc3[nH]2)CCCN1 [Veliparib] + C/C(O)=C(\C#N)C(=O)Nc1cc(Br)ccc1Br [LFM-A13] (first compound 1.4 µM, partner dose 2 µM) | 103% | 88% | 110% | 94.7% | 77.5% | 96.7% | 90.8% | 87.7% | 70.9% | 89.3% | 89.6% | 73.5% | 102% | 107% | 102%
COC(=O)c1sccc1S(=O)(=O)Nc1ccc(Nc2ccccc2)cc1OC + C/C(O)=C(\C#N)C(=O)Nc1cc(Br)ccc1Br [LFM-A13] (first compound 1 µM, partner dose 2 µM) | 93.2% | 92% | 112% | 104% | 86.8% | 102% | 86.5% | 95.4% | 105% | 109% | 90.5% | 90.9% | 98.2% | 98.5% | 94.5%
C/C(O)=C(\C#N)C(=O)Nc1cc(Br)ccc1Br + Cn1cc(/C=C2\C(=O)Nc3cccnc32)c2ccccc21 [GW441756] (first compound 2 µM, partner dose 0.4 µM) | 91.7% | 98.8% | 90.9% | 93.9% | 88% | 88.4% | 72.5% | 87.5% | 89% | 94.4% | 117% | 80.5% | 89.9% | 124% | 104%
CCN(CC)CCCCNc1ncc2cc(-c3cc(OC)cc(OC)c3)c(NC(=O)NC(C)(C)C)nc2n1 + O=C(Oc1ccc([N+](=O)[O-])cc1)N1CCC(C(O)(c2ccc3c(c2)OCO3)c2ccc3c(c2)OCO3)CC1 [JZL184] (first compound 0.1 µM, partner dose 1 µM) | 101% | 94.5% | 113% | 88.4% | 87.9% | 85.1% | 89.1% | 119% | 82.6% | 97.2% | 106% | 107% | 96.8% | 91.8% | 92.3%
N#Cc1c(O)c2c(-c3ccc(-c4ccccc4O)cc3)csc2[nH]c1=O + C/C(O)=C(\C#N)C(=O)Nc1cc(Br)ccc1Br [LFM-A13] (first compound 2 µM, partner dose 2 µM) | 102% | 96.2% | 97.6% | 102% | 91.4% | 87.4% | 85.2% | 98% | 97.6% | 85.8% | 109% | 95.5% | 81.5% | 87.9% | 87.8%
N#Cc1c(O)c2c(-c3ccc(-c4ccccc4O)cc3)csc2[nH]c1=O + Cc1cc(SCc2sc(-c3ccc(C(F)(F)F)c(F)c3)nc2C)ccc1OCC(=O)O [GW0742] (first compound 2 µM, partner dose 2 µM) | 98.4% | 94.9% | 89.5% | 79.2% | 106% | 89.7% | 90.8% | 88% | 98.6% | 98.7% | 98.6% | 85.5% | 80.2% | 105% | 50.2%
CC1(C)NC(=O)N(c2ccc([N+](=O)[O-])c(C(F)(F)F)c2)C1=O [nilutamide] + O=C(Oc1ccc([N+](=O)[O-])cc1)N1CCC(C(O)(c2ccc3c(c2)OCO3)c2ccc3c(c2)OCO3)CC1 [JZL184] (first compound 1 µM, partner dose 1 µM) | 101% | 110% | 98.3% | 73.4% | 109% | 95.3% | 108% | 108% | 91.1% | 110% | 109% | 97.2% | 98% | 130% | 113%
